Measurements reported in the supplement of paper PMC8007513.
Counter-ions that a name gives are not always drawn. ± gives the standard error. The whole screen tested about 1,300 compounds, of which about 130 (10%) showed an effect of 50% or more. The entries are a selection whose mix differs from that of the whole data set.

System: Trichoderma virens ATCC 9645
Experiment: growth yield (OD600) with compound + IPBC relative to untreated control; higher = less growth inhibition
Details: compound concentration: 100 uM, IPBC concentration: 200 ng/ml
Method in brief: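 Trichoderma virens ATCC 9645 spores from 7-day potato dextrose agar plates were suspended in potato dextrose broth at 15,000 spores ml^−1. Aliquots of 100 μl with library compounds at 100 μM final, with or without a co-applied biocide at 200 ng ml^−1, were grown in 96-well plates at 30 °C. OD600 was read at 40 h and 72 h on a BioTek EL800. Growth is expressed relative to the control without either agent, as means of duplicate screens.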

SMILES | growth yield (40 h) | growth yield (72 h)
Cc1cc(-c2ccccc2)nnc1NCCN1CCOCC1 [Minaprine dihydrochloride] + CCCCNC(=O)OCC#CI [3-iodo-2-propynyl butylcarbamate (IPBC)] | 88.2 ± 1.8% | 92.3 ± 2.1%
NC(N)=Nc1nc(CSCC/C(N)=N/S(N)(=O)=O)cs1 [Famotidine] + CCCCNC(=O)OCC#CI [3-iodo-2-propynyl butylcarbamate (IPBC)] | 84.7 ± 3% | 93.8 ± 3.6%
COc1cc(-c2ccc(=O)[nH]n2)ccc1OC(F)F [Zardaverine] + CCCCNC(=O)OCC#CI [3-iodo-2-propynyl butylcarbamate (IPBC)] | 105 ± 3% | 103.6 ± 0.42%
COc1cc(NC(C)CCCN)c2ncccc2c1 (configuration not stated) [Primaquine diphosphate] + CCCCNC(=O)OCC#CI [3-iodo-2-propynyl butylcarbamate (IPBC)] | 73.7 ± 11% | 117.7 ± 1.1%
CCCCNc1c(C(=O)OCC)c(C)nc2c1cnn2CC [Tracazolate hydrochloride] + CCCCNC(=O)OCC#CI [3-iodo-2-propynyl butylcarbamate (IPBC)] | 21.9% | 
CCCOc1ccc(C(=O)OCCN(CC)CC)cc1N [Proparacaine hydrochloride] + CCCCNC(=O)OCC#CI [3-iodo-2-propynyl butylcarbamate (IPBC)] | 106 ± 14% | 104 ± 9.9%
CC(CN(C)C)C(C)(O)Cc1ccc(Cl)cc1 (configuration not stated) [Clobutinol hydrochloride] + CCCCNC(=O)OCC#CI [3-iodo-2-propynyl butylcarbamate (IPBC)] | 92.8 ± 6.7% | 95.1 ± 3%
CC[C@@H](CO)NCCN[C@@H](CC)CO [Ethambutol dihydrochloride] + CCCCNC(=O)OCC#CI [3-iodo-2-propynyl butylcarbamate (IPBC)] | 87.05 ± 0.64% | 91.6 ± 0.94%
CC(=O)OCC(=O)[C@@]1(OC(C)=O)[C@@H](C)C[C@H]2[C@@H]3C[C@H](F)C4=CC(=O)C=C[C@]4(C)[C@@]3(F)[C@@H](O)C[C@@]21C [Diflorasone Diacetate] + CCCCNC(=O)OCC#CI [3-iodo-2-propynyl butylcarbamate (IPBC)] | 89.6 ± 5.1% | 93.8 ± 2.9%
C=CCOC(Cn1ccnc1)c1ccc(Cl)cc1Cl (configuration not stated) [Enilconazole] + CCCCNC(=O)OCC#CI [3-iodo-2-propynyl butylcarbamate (IPBC)] | 3.34 ± 0.16% | 2.94 ± 0.21%
O=c1[nH]c2ccccc2n1C1CCN(CCCC(c2ccc(F)cc2)c2ccc(F)cc2)CC1 [Pimozide] + CCCCNC(=O)OCC#CI [3-iodo-2-propynyl butylcarbamate (IPBC)] | 111 ± 8.3% | 136 ± 2.7%
C#C[C@]1(O)CC[C@H]2[C@@H]3CCC4=CC(=O)CC[C@@H]4[C@H]3CC[C@@]21CC [Norgestrel-(-)-D] + CCCCNC(=O)OCC#CI [3-iodo-2-propynyl butylcarbamate (IPBC)] | 89 ± 16% | 94.3 ± 13%
N=C(N)NCCN1CCCCCCC1 [Guanethidine sulfate] + CCCCNC(=O)OCC#CI [3-iodo-2-propynyl butylcarbamate (IPBC)] | 81.3 ± 4.1% | 90.2 ± 4.4%
CC1(C)[C@@H](OC(=O)CCC(=O)O)CC[C@]2(C)[C@H]3C(=O)C=C4[C@@H]5C[C@@](C)(C(=O)O)CC[C@]5(C)CC[C@@]4(C)[C@]3(C)CC[C@@H]12 [Carbenoxolone disodium salt] + CCCCNC(=O)OCC#CI [3-iodo-2-propynyl butylcarbamate (IPBC)] | 96.3 ± 18% | 96 ± 11%
CC(CN(C)C)CN1c2ccccc2Sc2ccccc21 (configuration not stated) [Trimeprazine tartrate] + CCCCNC(=O)OCC#CI [3-iodo-2-propynyl butylcarbamate (IPBC)] | 71.5 ± 3.8% | 92 ± 3.9%
CC(=O)N(CC(O)CN(C(C)=O)c1c(I)c(C(=O)NCC(O)CO)c(I)c(C(=O)NCC(O)CO)c1I)c1c(I)c(C(=O)NCC(O)CO)c(I)c(C(=O)NCC(O)CO)c1I (configuration not stated) [Iodixanol] + CCCCNC(=O)OCC#CI [3-iodo-2-propynyl butylcarbamate (IPBC)] | 99.6 ± 15% | 98.4 ± 10%
c1ccc(CN(CC2=NCCN2)c2ccccc2)cc1 [Antazoline hydrochloride] + CCCCNC(=O)OCC#CI [3-iodo-2-propynyl butylcarbamate (IPBC)] | 82.76 ± 0.79% | 94.28 ± 0.94%
CN(C)CC/C=C1/c2ccccc2COc2ccc(CC(=O)O)cc21 [Olopatadine hydrochloride] + CCCCNC(=O)OCC#CI [3-iodo-2-propynyl butylcarbamate (IPBC)] | 86.1 ± 6.7% | 91.5 ± 4.2%
C=CCSCC1Nc2cc(Cl)c(S(N)(=O)=O)cc2S(=O)(=O)N1 (configuration not stated) [Althiazide] + CCCCNC(=O)OCC#CI [3-iodo-2-propynyl butylcarbamate (IPBC)] | 98.16 ± 0.32% | 96.7 ± 0.21%
c1ccc(CNc2ncnc3nc[nH]c23)cc1 [Aminopurine, 6-benzyl] + CCCCNC(=O)OCC#CI [3-iodo-2-propynyl butylcarbamate (IPBC)] | 89 ± 1.9% | 94.08 ± 0.32%

SMILES | growth yield (40 h) | growth yield (72 h)
CN1Cc2c(N)cccc2C(c2ccccc2)C1 (configuration not stated) [Nomifensine maleate] + CCCCNC(=O)OCC#CI [3-iodo-2-propynyl butylcarbamate (IPBC)] | 90.9 ± 5.1% | 98.4 ± 3.6%
CC(C)(O)c1ccccc1CC[C@@H](SCC1(CC(=O)O)CC1)c1cccc(/C=C/c2ccc3ccc(Cl)cc3n2)c1 [Montelukast] + CCCCNC(=O)OCC#CI [3-iodo-2-propynyl butylcarbamate (IPBC)] | 131 ± 5.9% | 120 ± 6%
CCOC(=O)[C@@](C)(N)Cc1ccc(O)c(O)c1 [Methyldopate hydrochloride] + CCCCNC(=O)OCC#CI [3-iodo-2-propynyl butylcarbamate (IPBC)] | 110 ± 6% | 106 ± 6.2%
O=C(c1ccccc1)c1ccc2n1CCC2C(=O)O (configuration not stated) [Ketorolac tromethamine] + CCCCNC(=O)OCC#CI [3-iodo-2-propynyl butylcarbamate (IPBC)] | 78.8 ± 3.2% | 86 ± 2.9%
COc1c(N2CCNC(C)C2)c(F)cc2c(=O)c(C(=O)O)cn(C3CC3)c12 (configuration not stated) [Gatifloxacin] + CCCCNC(=O)OCC#CI [3-iodo-2-propynyl butylcarbamate (IPBC)] | 106 ± 4.5% | 101 ± 4.3%
C[C@]12CC[C@@H](O)C[C@H]1CC[C@@H]1[C@@H]2CC[C@]2(C)C(=O)CC[C@@H]12 [3-alpha-Hydroxy-5-beta-androstan-17-one] + CCCCNC(=O)OCC#CI [3-iodo-2-propynyl butylcarbamate (IPBC)] | 72.4 ± 0.95% | 84 ± 1.1%
C#CCN(C)[C@H](C)Cc1ccccc1 [Selegiline hydrochloride] + CCCCNC(=O)OCC#CI [3-iodo-2-propynyl butylcarbamate (IPBC)] | 92.3 ± 11% | 93.8 ± 6.5%
CO/N=C(\C(=O)N[C@@H]1C(=O)N2C(C(=O)OC(C)OC(C)=O)=C(COC(N)=O)CS[C@H]12)c1ccco1 (some centres not stated) [Cefuroxime axetil] + CCCCNC(=O)OCC#CI [3-iodo-2-propynyl butylcarbamate (IPBC)] | 92.1 ± 7.3% | 92.2 ± 2.4%
COc1ccccc1OCC(O)COC(N)=O (configuration not stated) [Methocarbamol] + CCCCNC(=O)OCC#CI [3-iodo-2-propynyl butylcarbamate (IPBC)] | 85.5 ± 2.9% | 95.3 ± 1.8%
Cc1cc(N)c2ccccc2[n+]1CCCCCCCCCC[n+]1c(C)cc(N)c2ccccc21 [Dequalinium dichloride] + CCCCNC(=O)OCC#CI [3-iodo-2-propynyl butylcarbamate (IPBC)] | 3.81% | 2.94%
Nc1ccn([C@@H]2CS[C@H](CO)O2)c(=O)n1 [Lamivudine] + CCCCNC(=O)OCC#CI [3-iodo-2-propynyl butylcarbamate (IPBC)] | 82.1 ± 3% | 90.9 ± 4.1%
CN(C)C(=O)Oc1ccc[n+](C)c1 [Pyridostigmine iodide] + CCCCNC(=O)OCC#CI [3-iodo-2-propynyl butylcarbamate (IPBC)] | 87.2 ± 1.8% | 90.4 ± 2.5%
NC1CCN(c2nc3c(cc2F)c(=O)c(C(=O)O)cn3-c2ccc(F)cc2F)C1 (configuration not stated) [Tosufloxacin hydrochloride] + CCCCNC(=O)OCC#CI [3-iodo-2-propynyl butylcarbamate (IPBC)] | 80.7 ± 5.4% | 86.5 ± 4.3%
CN1CCN2c3ncccc3Cc3ccccc3C2C1 (configuration not stated) [Mirtazapine] + CCCCNC(=O)OCC#CI [3-iodo-2-propynyl butylcarbamate (IPBC)] | 99.1 ± 4.5% | 107 ± 3.6%
COC(=O)N/N=C/c1c[n+]([O-])c2ccccc2[n+]1[O-] [Carbadox] + CCCCNC(=O)OCC#CI [3-iodo-2-propynyl butylcarbamate (IPBC)] | 80.7 ± 1.3% | 87.7 ± 1.5%
CN(C(=O)CN(CCO)CC(=O)N(C)C(C)(C)Cc1ccccc1)C(C)(C)Cc1ccccc1 [Oxethazaine] + CCCCNC(=O)OCC#CI [3-iodo-2-propynyl butylcarbamate (IPBC)] | 50.5 ± 2.2% | 90.8 ± 4.6%
Cc1cc(C)nc(NS(=O)(=O)c2ccc(N)cc2)n1 [Sulfamethazine sodium salt] + CCCCNC(=O)OCC#CI [3-iodo-2-propynyl butylcarbamate (IPBC)] | 100 ± 14% | 98.5 ± 9.1%
COc1cc(NS(=O)(=O)c2ccc(N)cc2)ncn1 [Sulfamonomethoxine] + CCCCNC(=O)OCC#CI [3-iodo-2-propynyl butylcarbamate (IPBC)] | 96.1 ± 14% | 101 ± 11%
CC1(C)O[C@@H]2C[C@H]3[C@@H]4C[C@H](F)C5=CC(=O)C=C[C@]5(C)[C@@]4(F)[C@@H](O)C[C@]3(C)[C@]2(C(=O)CO)O1 [Fluocinolone acetonide] + CCCCNC(=O)OCC#CI [3-iodo-2-propynyl butylcarbamate (IPBC)] | 93.7 ± 6.3% | 96.4 ± 6.8%
